Over roughly 110,000 compounds, “z-score” has its median near -0.1; the highest 2% begin near 2. Some of the results follow. The source made the active and inactive calls.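 The calls were made as follows: active = z-score in the third read window above 3 or below -3; inactive = the rest.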
Molecular target: Metabotropic glutamate receptor 8 (Rattus norvegicus) (UniProt P70579)
Test: mGluR8 Gi/Go-coupled signaling modulation – cell-based, rat, thallium flux, HTS, primary screen (AID 488969)
Settings: HEK293 rat mGluR8, GIRK (G protein-gated inwardly rectifying potassium channel) thallium flux, FluoZin2; at 10 µM; stronger effect = higher value; submaximal glutamate (EC20) added with thallium

Sequence of UniProt P70579 (P70579 whole entry, looked up): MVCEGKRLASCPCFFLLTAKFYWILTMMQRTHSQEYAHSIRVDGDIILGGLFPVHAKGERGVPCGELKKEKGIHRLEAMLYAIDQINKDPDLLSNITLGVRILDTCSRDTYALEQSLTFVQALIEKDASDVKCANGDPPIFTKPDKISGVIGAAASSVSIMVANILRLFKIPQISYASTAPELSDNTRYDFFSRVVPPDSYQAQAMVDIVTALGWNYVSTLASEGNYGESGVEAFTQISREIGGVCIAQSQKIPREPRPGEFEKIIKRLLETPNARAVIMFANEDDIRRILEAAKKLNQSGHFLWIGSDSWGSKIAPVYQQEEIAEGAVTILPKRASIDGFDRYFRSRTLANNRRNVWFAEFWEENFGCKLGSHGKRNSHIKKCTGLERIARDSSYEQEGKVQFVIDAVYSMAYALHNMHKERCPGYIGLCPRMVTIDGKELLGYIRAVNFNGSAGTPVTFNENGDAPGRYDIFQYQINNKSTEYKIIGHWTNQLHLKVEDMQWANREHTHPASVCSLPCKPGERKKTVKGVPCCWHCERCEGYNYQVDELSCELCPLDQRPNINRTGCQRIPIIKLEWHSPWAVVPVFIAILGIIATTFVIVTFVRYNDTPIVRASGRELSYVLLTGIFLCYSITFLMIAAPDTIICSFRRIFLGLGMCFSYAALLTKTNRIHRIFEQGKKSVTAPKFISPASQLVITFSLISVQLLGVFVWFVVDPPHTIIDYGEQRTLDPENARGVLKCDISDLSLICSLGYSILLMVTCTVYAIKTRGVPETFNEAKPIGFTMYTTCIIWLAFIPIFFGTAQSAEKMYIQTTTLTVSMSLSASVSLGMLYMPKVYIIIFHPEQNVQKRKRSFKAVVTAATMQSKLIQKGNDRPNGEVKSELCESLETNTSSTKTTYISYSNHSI

| Structure (SMILES) | z-score |
| --- | --- |
| c1ccc(COc2ccc(Nc3ncnc4nc[nH]c34)cc2)cc1 | 0.0418 |
| COc1ccc(CCNC(=O)CSc2ccc3ccccc3c2)cc1OC | 0.159 |
| CC(=O)C(CC(=O)N1CCCc2ccccc21)C(=O)Nc1ccc(F)cc1 (stereo unspecified) | -0.605 |
| Cc1ccc(C)c(NC(=S)NNC(=O)c2csc(C(C)C)c2)c1 | active: 12 |
| Nn1c(-c2cccc(Br)c2)n[nH]c1=S | -0.267 |
| COc1ccc(C(=O)NCc2cccnc2)cc1 | 0.111 |
| CC1CCCC(C)N1C(=O)CSc1nc2ncnc(N)c2[nH]1 (stereo unspecified) | -0.0584 |
| CC(C)CCn1c(O)c(N=NC(=O)Cn2ccc(C(F)(F)F)n2)c2ccccc21 | 0.0142 |
| Cc1ccc2c(c1)c1c(n2CC(O)Cn2ccnc2C)C(=O)CCC1 (stereo unspecified) | 0.314 |
| O=c1c2ccccc2[nH]c(=S)n1-c1cccc(S(=O)(=O)N2CCCC2)c1 | -0.0499 |
| COc1ccc(N2C(=O)c3ccccc3NC2c2ccc(OC)c(Cn3nnc4ccccc43)c2)cc1 (stereo unspecified) | -0.206 |
| O=C(c1ccccc1)c1cccn1CC(=O)N1CCN(c2ccccc2)CC1 | -0.233 |
| Cc1ccc(O)c(-c2cc(-c3ccccc3[N+](=O)[O-])[nH]n2)c1 | -0.0176 |
| Cc1ccc(SC(C)c2nc(-c3ccncc3)no2)cc1 (stereo unspecified) | -0.0796 |
| C=CCn1c(=O)[nH]c2cc(C(=O)N3CCN(c4ccc(C(C)=O)cc4)CC3)ccc2c1=O | -0.507 |
| COC(=O)CC(=O)CSc1nc2c(cc1C#N)CCCCC2 | -0.364 |
| Cc1nc2nc[nH]n2c(=O)c1NS(C)(=O)=O | 0.544 |
| Cc1cc(O)c(/C=N/Nc2ccccc2)c(=O)o1 | -0.248 |
| Cc1cc(/C=C2/SC(=O)N(CC(=O)N3CCOCC3)C2=O)c(C)n1-c1ccccc1F | -0.362 |
| CCN(CC)C(=O)CSc1nnc(CNc2ccc(F)cc2)n1-c1ccccc1 | 0.0593 |
| Cc1cccc(OCC(=O)O/N=C(\N)Cc2cccs2)c1 | -0.706 |
| COc1ccccc1NC(=S)NN1CCN(C)CC1 | -0.238 |
| COc1ccc(-n2c(C)cc(C(=O)NC3CCCCC3)c2C)cc1 | -0.564 |
| Cc1ccccc1NC(=O)c1ccc(NC(=O)c2ccco2)cc1 | 0.0446 |

| Structure (SMILES) | z-score |
| --- | --- |
| N#CC1=C(N)Oc2n[nH]c(-c3cccs3)c2C1C1CCCCC1 (stereo unspecified) | -0.253 |
| Cc1cccc(CSc2nc(N)c(C#N)c(-c3cccs3)c2C#N)c1 | 0.0419 |
| Cc1cccc(C)c1OCC(=O)OC/C(O)=C(\C#N)c1nc2ccccc2[nH]1 | -0.226 |
| CCCC(=O)c1c[nH]c(C(=O)NCCCN2CCOCC2)c1 | 0.501 |
| CCOC(=O)C(NC(=O)NCc1ccc(F)cc1)(OCC)C(F)(F)F (stereo unspecified) | -0.337 |
| O=C(CS(=O)(=O)c1cccc(Cl)c1)Nc1ccccc1Cl | -0.0905 |
| Cn1c(=O)c2c(nc(CN3CCN(C(=O)c4ccco4)CC3)n2CCc2ccccc2)n(C)c1=O | -0.658 |
| CCCCN(C(=O)CCC(=O)Nc1cc(C)on1)C(C(=O)NC(C)(C)C)c1cccc(OC)c1OC (stereo unspecified) | -0.255 |
| CCCCn1c(-c2ccco2)nc2ccccc2c1=O | -0.339 |
| C=CCc1cccc(/C=N/c2nc3ccccc3n2CC)c1O | 0.37 |
| CCc1ccccc1OCC(=O)NC1CCCC1 | 0.237 |
| CCn1cc(C2=NC(C)(C)CO2)c2ccccc21 | -0.521 |
| O=C(CCSCCC(=O)NCc1ccccc1)NCc1ccccc1 | -0.211 |
| CCOCc1cn(CC(=O)c2ccc([N+](=O)[O-])cc2)c(C)nc1=N | 0.0311 |
| Cc1ccc(NC(=O)COc2ncnc3c(Cl)cc(Cl)cc23)cc1[N+](=O)[O-] | 0.201 |
| O=C(c1ccc(Cl)cc1)c1coc2ccc(O)cc12 | -0.122 |
| CCOC(=O)C1=C(C)Nc2ncnn2C1c1cccnc1 (stereo unspecified) | 0.582 |
| Cc1cccc(N2CCN(C(=O)COc3ccc4c(c3)CCC4)CC2)c1C | -0.161 |
| CCn1c(=O)cc(SCC(=O)Nc2cccc(SC)c2)c2ccccc21 | -0.136 |
| COc1cc(OC)cc(C(=O)N(CCCN2C(=O)c3cccc4cccc(c34)C2=O)c2cccc(OC)c2)c1 | -0.716 |
| Cc1noc(C)c1S(=O)(=O)Nc1ccc(C(=O)NC2CCCCC2)cc1 | -0.119 |
| C=CCn1c(SCC(N)=O)nc(C)cc1=O | -0.11 |
| CCOC(=O)CSc1nc2ccc(C)cc2[nH]1 | 0.0515 |
| CN(c1ccc(C(=O)NCCc2ccccc2)cc1)S(C)(=O)=O | -0.314 |

| Structure (SMILES) | z-score |
| --- | --- |
| Cc1ccc(S(=O)(=O)N/N=C/c2c(F)cccc2Cl)cc1 | -0.033 |
| Cc1ccc(C(C2=C(O)CC(C)(C)CC2=O)C2C(=O)CC(C)(C)CC2=O)o1 (stereo unspecified) | -0.185 |
| O=S(=O)(c1ccccc1)c1cnn(-c2ccccc2)c1-c1ccc(Cl)cc1 | 0.166 |
| COCCSc1ccccc1C(=O)NCC1CCCO1 (stereo unspecified) | 0.715 |
| CCOc1ccc(OCC)c(NC(=O)CCCN2C(=O)c3cccnc3C2=O)c1 | 0.224 |
| CC(C)CCn1c(Cl)nc2c1c(=O)n(C)c(=O)n2C | 2.04 |
| O=[N+]([O-])c1ccc2sc(SCc3nc4ccccn4c3Br)nc2c1 | -0.0596 |
| S=C(c1ccc2c(c1)OCO2)N1CCCCC1 | 0.65 |
| O=C(OCn1nnc2ccccc2c1=O)c1ccc2c(=O)n3c(nc2c1)CCC3 | 0.159 |
| COc1ccc(C(C(O)C(=O)c2c[nH]c3ccccc23)N2CCN(c3ccccc3)CC2)cc1 (stereo unspecified) | -0.282 |
| O=C(CNC(=S)NC(=O)c1ccccc1)c1ccccc1 | 0.079 |
| Cn1c2c(c(=O)n(C)c1=O)C(NS(=O)(=O)c1ccccc1)(C(F)(F)F)C(=O)N2 (stereo unspecified) | -0.132 |
| O=C(c1ccccc1CCc1ccccc1)N1CCN(c2ccccn2)CC1 | 2.38 |
| CNC(=O)COC(=O)/C=C/c1c(C)nn(-c2ccccc2)c1C | -0.285 |
| CCCc1cc(=O)[nH]c(SCc2cc(Cl)ccc2OC(F)F)n1 | 0.377 |
| COc1ccccc1N1CCN(CC(O)COc2ccc3c(c2)CCC3)CC1 (stereo unspecified) | -0.492 |
| CC(c1ccccc1)n1cc(C(=O)NCCCn2ccnc2)nn1 (stereo unspecified) | -0.121 |
| S=c1[nH]nc(-c2ccccn2)n1/N=C/c1cccs1 | -0.126 |
| CCOc1ccc(OCc2cccc(C(=O)N3CCOCC3)c2)cc1 | -0.775 |
| Cc1ccc(S(=O)(=O)c2c(C)cc(C)nc2Oc2cccc(C)c2C)cc1 | -0.128 |
| CCNc1nc(OC)nc(Oc2ccc(=O)n(-c3ccccc3)n2)n1 | -0.172 |
| Cc1ccc(CN(CC(=O)N/N=C/c2ccco2)S(=O)(=O)c2ccc(C)cc2)cc1 | 0.156 |
| CCn1c(SCC(=O)Nc2ccccc2F)nc2c(c1=O)SC(C)C2 (stereo unspecified) | -1.87 |
